# Laboratory results: paper PMC4336329 (PLoS ONE, 2015)
# Out of some 310,000 compounds screened, about 14,000 (4.5%) showed an effect of 50% or more. Effects have a minus sign here. The list shows a part of the results.
# Target: human ether-à-go-go-related gene (hERG) potassium channel (human, UniProt Q12809)
# Test: primary screen, population patch clamp on CHO cells stably expressing hERG
# 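Further: peak tail current of the secondary pulse compared with the same well before compound.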
# Sequence of human ether-à-go-go-related gene (hERG) potassium channel (Q12809 whole entry, looked up): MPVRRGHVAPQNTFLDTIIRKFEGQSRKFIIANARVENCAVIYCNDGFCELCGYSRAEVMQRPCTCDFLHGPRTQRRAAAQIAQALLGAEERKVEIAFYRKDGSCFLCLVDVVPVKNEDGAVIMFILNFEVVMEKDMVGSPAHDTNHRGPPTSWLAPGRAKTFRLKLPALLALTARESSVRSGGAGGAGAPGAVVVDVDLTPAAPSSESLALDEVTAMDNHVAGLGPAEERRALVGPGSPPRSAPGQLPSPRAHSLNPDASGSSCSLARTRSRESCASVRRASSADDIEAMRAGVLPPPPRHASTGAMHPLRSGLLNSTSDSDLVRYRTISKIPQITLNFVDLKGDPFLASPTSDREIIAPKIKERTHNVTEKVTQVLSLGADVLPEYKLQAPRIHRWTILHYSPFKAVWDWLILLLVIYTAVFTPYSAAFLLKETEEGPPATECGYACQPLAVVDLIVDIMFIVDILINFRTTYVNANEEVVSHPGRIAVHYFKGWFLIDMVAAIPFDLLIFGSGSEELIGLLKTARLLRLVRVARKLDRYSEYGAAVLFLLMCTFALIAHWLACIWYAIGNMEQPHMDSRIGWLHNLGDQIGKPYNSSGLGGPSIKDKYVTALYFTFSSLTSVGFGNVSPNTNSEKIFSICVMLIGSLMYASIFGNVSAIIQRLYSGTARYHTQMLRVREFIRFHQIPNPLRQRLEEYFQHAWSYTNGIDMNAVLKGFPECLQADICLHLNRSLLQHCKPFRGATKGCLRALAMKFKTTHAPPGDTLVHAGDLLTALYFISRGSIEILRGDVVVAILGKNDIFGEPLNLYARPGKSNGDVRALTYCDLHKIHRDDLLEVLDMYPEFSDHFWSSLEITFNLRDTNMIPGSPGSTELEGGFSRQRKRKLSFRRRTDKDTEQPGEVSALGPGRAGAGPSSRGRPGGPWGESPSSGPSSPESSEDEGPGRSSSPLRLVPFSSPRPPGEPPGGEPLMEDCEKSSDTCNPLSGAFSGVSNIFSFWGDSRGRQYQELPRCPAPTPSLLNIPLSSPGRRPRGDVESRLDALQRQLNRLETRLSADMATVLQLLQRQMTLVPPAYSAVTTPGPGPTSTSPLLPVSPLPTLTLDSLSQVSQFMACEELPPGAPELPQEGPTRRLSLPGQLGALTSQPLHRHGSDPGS
row,SMILES,"hERG current change (%, negative = inhibition) at 10uM [%]"
1,Cc1ccc(N(C(=O)CNC(=O)c2ccco2)C(C(=O)NC2CCCC2)c2cccnc2)cc1 (stereo not drawn),-18.9
2,Cc1nn(C(C)C)c(C)c1CN1CCCC(C(=O)c2cccc(OC(C)C)c2)C1 (stereo not drawn),-39.6
3,O=C(COc1ccc(Cl)cc1)N1CCN(c2ncccn2)CC1,-9.42
4,CCN(CC(=O)NC1CCS(=O)(=O)C1)C(C)C(=O)Nc1ccc(F)cc1 (stereo not drawn),0.961
5,CC1(C)Cc2ccccc2C(Nn2cnnc2)=N1,6.66
6,Cc1cc(-c2onc(C)c2C(=O)Oc2ccc(Cl)cc2)no1,-2.56
7,Cc1ccn(C(C)CC(=O)N2CCc3ccccc32)n1 (stereo not drawn),12.5
8,COc1cc(OC)c(CN2CCc3c([nH]c4ccccc34)C2)cc1Br,-54.9
9,Nc1c(S(=O)(=O)c2cccc(Cl)c2)c2nc3ccccc3nc2n1/N=C/c1ccc(O)c(O)c1,1.86
10,Cc1ccc(C)c(N2CCN(S(=O)(=O)c3cc4c(cc3C)NC(=O)CO4)CC2)c1,12.7
11,COc1ccc(C)cc1N(CC(N)=O)S(=O)(=O)c1ccc(C)cc1,-9.11
12,O=C(OCN1C(=O)c2ccccc2C1=O)c1ccccc1,4.86
13,Cc1ccc(OCC(=O)Nc2ccc(NC(=O)c3ccccc3)c(C)c2)cc1,10.4
14,COc1ccc(NC(=O)CCN2C(=O)C3C4CCC(C4)C3C2=O)cc1 (stereo not drawn),-3.58
15,Cn1cccc1/C=N/NC(N)=S,6.31
16,COc1ccc(C(=O)COC(=O)Cn2c(C)csc2=O)c(OC)c1,-13.9
17,CS(=O)(=O)NCCCCNc1ccc(C(F)(F)F)cc1[N+](=O)[O-],-56.8
18,Cn1c(C(=O)N2CCC(C(=O)N3CCC4(CC3)OCCO4)CC2)cc2sccc21,-20.7
19,Cc1oc(-c2ccccc2)cc1C(N)=O,17.2
20,O=[N+]([O-])c1ccccc1CN1CC=C(c2ccc(F)cc2)CC1,-12.8
21,O=C1CNc2ccc(C(=O)N3CCN(c4ccccn4)CC3)cc2N1,3.91
22,COCCn1c(=NC(=O)CSCC(=O)Nc2cc(C)on2)sc2cc(C(=O)OC)ccc21,-9.3
23,CCOC(=O)N1CCN(C(=O)c2cc(Cl)c(Cl)cc2C(=O)O)CC1,12.5

row,SMILES,"hERG current change (%, negative = inhibition) at 10uM [%]"
1,CC1=NOC(=O)/C1=C\c1ccccc1,15.5
2,COC(=O)CCCCCc1ccc(C(C)=O)s1,3.72
3,COC(=O)c1cccc(CN2C(=O)SC(Nc3ccccc3)C2=O)c1 (stereo not drawn),-27.2
4,O=C(NC(Cc1ccccc1)C(=O)N1CCCCCC1)c1ccccc1 (stereo not drawn),-9.06
5,O=C(COC(=O)c1ccc(Cl)nc1)Nc1c(Cl)cccc1C(F)(F)F,15
6,Cc1ccc(C)c(N2CCN(C(=O)CCS(=O)(=O)c3cccc4nonc34)CC2)c1,-25.4
7,CC(C)(O)CCCC(C)(O)c1ccc(C(=O)O)cc1O (stereo not drawn),10.7
8,Cc1nc(SCC(=O)Nc2c(C)nn(C)c2C)c2cnn(-c3ccccc3)c2n1,14
9,Cn1c(CN2CCCC2)nc2cc(NC(=O)COc3ccc([N+](=O)[O-])cc3)ccc21,-38.6
10,O=C(NCCCO)/C(=C\c1cn(-c2ccccc2)nc1-c1cccnc1)NC(=O)c1ccccc1,0.796
11,O=C(Cc1ccc(-c2ccccc2)cc1)NC(c1ccccc1)c1ccccc1,7.88
12,COc1ccc(C2=NC(CO)(CO)CO2)cc1,19
13,COc1cccc(NC(=O)CC(C)=O)c1,10.9
14,COC(=O)C1=C(c2cc3ccccc3s2)C[C@@H]2CC[C@H]1N2C(=O)NCCNC(C)=O,2.06
15,CCN(CC)S(=O)(=O)c1ccc(N=Nc2cc(C)cc(Br)c2O)cc1,4.49
16,c1ccc(OCc2ccc(CCCN3CCOCC3)cc2)cc1,-46
17,Cc1csc(NC(=O)c2c(O)c3c(n(CC(C)C)c2=O)CCCC3)n1,0.0557
18,Cc1ccccc1OCCCC(=O)NC1CCCCC1,7.72
19,COc1ccccc1NS(=O)(=O)c1cccc(N2CC(O)=C(c3ccccc3)C2=N)c1,-16.1
20,NC(=O)N/N=C/c1ccccc1OCc1cccc2ccccc12,-4.83
21,O=c1c2ccccc2ncn1CCCOc1ccccc1[N+](=O)[O-],-39
22,Clc1ccc(N2CCCCCC2)nn1,4.93
23,CCOC(=O)CSc1nc(C)cc(C)c1C(N)=O,33.7

row,SMILES,"hERG current change (%, negative = inhibition) at 10uM [%]"
1,Clc1ccccc1-c1nc(/C=N/N2CCOCC2)c2ccccn12,22.9
2,Cc1ccc(NC(=O)c2ccccc2F)nc1,-5.56
3,C=CCc1cc(C=C2C(=O)N(C)C(=O)N(C)C2=O)cc(OCC)c1OCc1ccccc1,15.2
4,C=C1c2ccccc2NC(=O)N1c1ccc(C)cc1,4.59
5,CCOC(=O)N1CCN(S(=O)(=O)c2ccc3[nH]cc(C(=O)O)c(=O)c3c2)CC1,3.22
6,COC(=O)c1cccc(NC(=O)c2cnoc2C)c1,-7.73
7,Cc1ccc(C(=O)NCCCN2CCOCC2)cc1S(=O)(=O)N1CCOCC1,2.89
8,O=C(N1CCOCC1)N1CCN(c2ccccc2F)CC1,12.3
9,COc1cccc(Nc2ccc(-n3ccnc3)nn2)c1,11.1
10,CC(C)c1ccc(/C=C/C(=O)NC(=S)NN2CCOCC2)cc1,13.5
11,COc1ccc(/C(C)=N/NC(=O)CNC(=O)c2ccco2)c(OC)c1,-19.2
12,CC(=O)N1CCN(CCN=Cc2c(O)n(-c3ccc(C)cc3)c(=S)[nH]c2=O)CC1,15.5
13,O=C1CC(=C2c3ccccc3-c3ccccc32)C(=O)N1CCN1CCN(c2ccccc2)CC1,-5.16
14,COc1ccc(N=C2NC(=O)S/C2=C\c2ccc(N(C)C)cc2)cc1,13.4
15,CCOC(=O)CSc1ccc(C(=O)Nc2ccc(OC)cc2)cn1,10.8
16,CC1(C)CC(=O)C2=C(C1)OC(N)=C(C#N)C2C#Cc1ccccc1 (stereo not drawn),13.2
17,CN1CCN(Cc2c(O)ccc3cc(-c4ccccn4)c(=O)oc23)CC1,12.1
18,CN(C)S(=O)(=O)c1ccc(-c2ccccc2)cc1,0.03
19,Cc1csc2ncc(C(=O)NCCc3ccccc3)c(=O)n12,-14.3
20,O=C(Nc1cc(Cl)ccc1N1CCOCC1)c1ccc(N2CCCC2=O)cc1,8.17
21,COC(=O)Cn1c(=NC(=O)CSCC(=O)Nc2cc(C)on2)sc2cc(C(=O)OC)ccc21,11.6
22,C=CCn1c(SCC(=O)Nc2cc(C)on2)nc2sc3c(c2c1=O)CCCC3,-4
23,CC1C(=O)O[C@@H]2C[C@@H](C)[C@@H]3CCC(=O)[C@@]3(C)[C@@H](O)[C@H]12 (stereo partly drawn),5.38

row,SMILES,"hERG current change (%, negative = inhibition) at 10uM [%]"
1,COc1ccc(-c2nc(CSCC(=O)NC3CCN(Cc4ccccc4)CC3)c(C)o2)cc1OC,-40.9
2,COc1ccc(CC(=O)NC2CCSc3ccccc32)cc1OC (stereo not drawn),2.41
3,COCCNC(=O)NC(=O)CSc1nc(C)c(C)c(C)n1,-5.8
4,COc1cc(/C=N/N2CCOCC2)ccc1OCc1ccccc1,12.3
5,CCCCNC1c2ccccc2C(=O)N1Cc1ccccc1.Cl (stereo not drawn),-38.7
6,COc1cc(CC(=O)OCC(=O)Nc2sccc2C(N)=O)cc(OC)c1OC,6.98
7,COc1ccc(CCC(=O)Nc2ncc(C)s2)cc1,21.4
8,CN(C)S(=O)(=O)n1cc(/C=C(\NC(=O)c2ccccc2Cl)C(=O)N2CCOCC2)c2ccccc21,-7.07
9,CCOC(=O)c1cccc(N2C(=O)Nc3ccccc3N2O)c1,-6.97
10,COc1cc(/C=C2\SC(=S)N(NS(=O)(=O)c3ccc(C)cc3)C2=O)cc(OC)c1OC,1.44
11,COc1cc(OC)cc(C(=O)NC(C(=O)Nc2ccc3c(c2)OCO3)C(C)C)c1 (stereo not drawn),15.1
12,C=CCc1c(C)nc(SC)nc1Nc1ccc(C(=O)O)cc1,3.32
13,Cc1cc(C)nc(N/N=C/c2ccccc2OCc2ccc(Br)cc2)n1,19.3
14,Cc1nonc1C(=O)N/N=C/c1ccccc1,9.44
15,O=C(O)C(=O)O.OCC1CCCCN1CC(O)COC(c1ccc(F)cc1)c1ccc(F)cc1 (stereo not drawn),-71
16,Nc1cccc(-c2nc3ccc(N)cc3s2)c1,11.5
17,COc1ccc(/C=C/C(=O)c2ccncc2)c2ccccc12,-1.97
18,N#C/C(=C\c1c(N2CCCCC2)nc2ccccn2c1=O)C(=O)NCc1ccco1,-33.4
19,O=C(Cn1nnc(-c2ccccc2)n1)NNC(=O)c1ccc(Br)cc1,17.6
20,O=C(CSC1=NC2(CCCCCC2)N=C1c1ccccc1)Nc1ccc2c(c1)OCCO2,-9.84
21,COc1cc2nc(CCc3ccccc3)oc(=O)c2cc1OC,9.52
